This is one part of the list. The list includes weakly bound sequences.
biological target: T1, MBP-FoxP3dN (UniProt Q99JB6); assay: PD-seq (MBP pull-down with sequencing); conditions: 20 mM Tris-HCl pH 7.5, 100 mM NaCl, 1.5 mM MgCl2, 0.4 uM protein, 0.1 uM dsDNA library, 30 min, room temperature, amylose pull-down; high values mean tight binding; double strand, one strand shown
T1 sequence: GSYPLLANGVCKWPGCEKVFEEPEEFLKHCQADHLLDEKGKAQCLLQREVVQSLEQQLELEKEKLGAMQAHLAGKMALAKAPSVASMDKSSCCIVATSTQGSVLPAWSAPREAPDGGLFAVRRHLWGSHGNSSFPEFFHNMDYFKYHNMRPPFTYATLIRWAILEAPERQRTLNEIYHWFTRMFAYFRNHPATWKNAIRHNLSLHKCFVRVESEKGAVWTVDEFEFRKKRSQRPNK

| Sequence | binding signal (RPM ratio (pull-down/input)) |
| --- | --- |
| GATGATTGTTCTCCCAGCTGATGAATTATGTTTCTCGAGTAAACAAATTTTCCTAATCTTTCTGTTCAAGCGCCATCTAC | 4.18 |
| GATGATTGTTCTCCCAGCTGATGAATTCTGTTTATCGAGTAAACAAATTTTCCTAATCTTTCTGTTCAAGCGCCATCTAC | 7.92 |
| GATGATTGTTCTCCCAGCTGATGAATTATATTCGTCGAGTAAACAAATTTTCCTAATCTTTCTGTTCAAGCGCCATCTAC | 0.578 |
| GATGATTGTTCTCCCAGCTGATGAATTCTCGGCCTCGAGTAAACAAATTTTCCTAATCTTTCTGTTCAAGCGCCATCTAC | 0.255 |
| GATGATTGTTCTCCCAGCTGATGAATTACGAACTTCGAGTAAACAAATTTTCCTAATCTTTCTGTTCAAGCGCCATCTAC | 0.335 |
| GATGATTGTTCTCCCAGCTGATGAATTTGAAAGGTCGAGTAAACAAATTTTCCTAATCTTTCTGTTCAAGCGCCATCTAC | 0.194 |
| GATGATTGTTCTCCCAGCTGATGAATTTCACCCTTCGAGTAAACAAATTTTCCTAATCTTTCTGTTCAAGCGCCATCTAC | 0.275 |
| GATGATTGTTCTCCCAGCTGATGAATTTGCCTCTTCGAGTAAACAAATTTTCCTAATCTTTCTGTTCAAGCGCCATCTAC | 2.52 |
| GATGATTGTTCTCCCAGCTGATGAATTGGTCCAGTCGAGTAAACAAATTTTCCTAATCTTTCTGTTCAAGCGCCATCTAC | 0.229 |
| GATGATTGTTCTCCCAGCTGATGAATTATCGCGCTCGAGTAAACAAATTTTCCTAATCTTTCTGTTCAAGCGCCATCTAC | 0.537 |
| GATGATTGTTCTCCCAGCTGATGAATTAGTACTTTCGAGTAAACAAATTTTCCTAATCTTTCTGTTCAAGCGCCATCTAC | 0.674 |
| GATGATTGTTCTCCCAGCTGATGAATTCCTGAACTCGAGTAAACAAATTTTCCTAATCTTTCTGTTCAAGCGCCATCTAC | 0.217 |
| GATGATTGTTCTCCCAGCTGATGAATTTGAGGAATCGAGTAAACAAATTTTCCTAATCTTTCTGTTCAAGCGCCATCTAC | 0.241 |
| GATGATTGTTCTCCCAGCTGATGAATTGTATCTGTCGAGTAAACAAATTTTCCTAATCTTTCTGTTCAAGCGCCATCTAC | 1.2 |
| GATGATTGTTCTCCCAGCTGATGAATTCGCTCACTCGAGTAAACAAATTTTCCTAATCTTTCTGTTCAAGCGCCATCTAC | 0.368 |
| GATGATTGTTCTCCCAGCTGATGAATTTTCGGGATCGAGTAAACAAATTTTCCTAATCTTTCTGTTCAAGCGCCATCTAC | 0.23 |

| Sequence | binding signal (RPM ratio (pull-down/input)) |
| --- | --- |
| GATGATTGTTCTCCCAGCTGATGAATTCGTCTGATCGAGTAAACAAATTTTCCTAATCTTTCTGTTCAAGCGCCATCTAC | 0.299 |
| GATGATTGTTCTCCCAGCTGATGAATTGTCGAACTCGAGTAAACAAATTTTCCTAATCTTTCTGTTCAAGCGCCATCTAC | 0.315 |
| GATGATTGTTCTCCCAGCTGATGAATTAACGGCGTCGAGTAAACAAATTTTCCTAATCTTTCTGTTCAAGCGCCATCTAC | 0.466 |
| GATGATTGTTCTCCCAGCTGATGAATTCAGAGAATCGAGTAAACAAATTTTCCTAATCTTTCTGTTCAAGCGCCATCTAC | 0.179 |
| GATGATTGTTCTCCCAGCTGATGAATTATGAGCATCGAGTAAACAAATTTTCCTAATCTTTCTGTTCAAGCGCCATCTAC | 1.02 |
| GATGATTGTTCTCCCAGCTGATGAATTACCAGTCTCGAGTAAACAAATTTTCCTAATCTTTCTGTTCAAGCGCCATCTAC | 0.362 |
| GATGATTGTTCTCCCAGCTGATGAATTCAATAAATCGAGTAAACAAATTTTCCTAATCTTTCTGTTCAAGCGCCATCTAC | 0.229 |
| GATGATTGTTCTCCCAGCTGATGAATTATCCAAGTCGAGTAAACAAATTTTCCTAATCTTTCTGTTCAAGCGCCATCTAC | 0.191 |
| GATGATTGTTCTCCCAGCTGATGAATTCGCACAGTCGAGTAAACAAATTTTCCTAATCTTTCTGTTCAAGCGCCATCTAC | 0.324 |
| GATGATTGTTCTCCCAGCTGATGAATTCTTACCGTCGAGTAAACAAATTTTCCTAATCTTTCTGTTCAAGCGCCATCTAC | 0.233 |
| GATGATTGTTCTCCCAGCTGATGAATTGAATGAATCGAGTAAACAAATTTTCCTAATCTTTCTGTTCAAGCGCCATCTAC | 0.294 |
| GATGATTGTTCTCCCAGCTGATGAATTCCTCGCATCGAGTAAACAAATTTTCCTAATCTTTCTGTTCAAGCGCCATCTAC | 0.768 |
| GATGATTGTTCTCCCAGCTGATGAATTCGTCTTATCGAGTAAACAAATTTTCCTAATCTTTCTGTTCAAGCGCCATCTAC | 0.611 |
| GATGATTGTTCTCCCAGCTGATGAATTCGTCTCGTCGAGTAAACAAATTTTCCTAATCTTTCTGTTCAAGCGCCATCTAC | 0.425 |
| GATGATTGTTCTCCCAGCTGATGAATTTGACGTATCGAGTAAACAAATTTTCCTAATCTTTCTGTTCAAGCGCCATCTAC | 1.27 |
